Test [1] deals with Lactobacillus plantarum LDH1 protein (Lactobacillus plantarum) (UniProt P56512). In words: sandwich ELISA, LDH1 10 ng/ml, paired with 1G9 at 1 ug/ml.
For test [2] the target is unchanged. In words: sandwich ELISA, LDH1 10 ng/ml, paired with 2H1 at 1 ug/ml.
The target is the same in test [3]. Kind of test: sandwich ELISA, LDH1 10 ng/ml, paired with 3E3 at 1 ug/ml.
Test [4] has the same target. In words: sandwich ELISA, LDH1 10 ng/ml, paired with 4F7 at 1 ug/ml.
For test [5] the target is unchanged. In words: sandwich ELISA, LDH1 10 ng/ml, paired with 3B10 at 1 ug/ml.
For test [6] the target is unchanged. In words: sandwich ELISA, LDH1 10 ng/ml, paired with 3D10 at 1 ug/ml.
Test [7] shares this target. Kind of test: sandwich ELISA, LDH1 100 ng/ml, paired with 1G9 at 1 ug/ml.
Test [8] shares this target. Kind of test: sandwich ELISA, LDH1 100 ng/ml, paired with 2H1 at 1 ug/ml.
The target is the same in test [9]. In words: sandwich ELISA, LDH1 100 ng/ml, paired with 3E3 at 1 ug/ml.
Test [10] shares this target. Kind of test: sandwich ELISA, LDH1 100 ng/ml, paired with 4F7 at 1 ug/ml.
For test [11] the target is unchanged. In words: sandwich ELISA, LDH1 100 ng/ml, paired with 3B10 at 1 ug/ml.
For test [12] the target is unchanged. Kind of test: sandwich ELISA, LDH1 100 ng/ml, paired with 3D10 at 1 ug/ml.
Test [13] has the same target. In words: sandwich ELISA, LDH1 1000 ng/ml, paired with 1G9 at 1 ug/ml.
Test [14] shares this target. Kind of test: sandwich ELISA, LDH1 1000 ng/ml, paired with 2H1 at 1 ug/ml.
For test [15] the target is unchanged. Kind of test: sandwich ELISA, LDH1 1000 ng/ml, paired with 3E3 at 1 ug/ml.
Test [16] shares this target. Kind of test: sandwich ELISA, LDH1 1000 ng/ml, paired with 4F7 at 1 ug/ml.
The target is the same in test [17]. Kind of test: sandwich ELISA, LDH1 1000 ng/ml, paired with 3B10 at 1 ug/ml.
For test [18] the target is unchanged. Kind of test: sandwich ELISA, LDH1 1000 ng/ml, paired with 3D10 at 1 ug/ml.
Test [19] has the same target. Kind of test: lateral flow rapid kit, 3D5 on the test line with 2H1-gold conjugate.

UniProt P56512, sequence (P56512 whole entry): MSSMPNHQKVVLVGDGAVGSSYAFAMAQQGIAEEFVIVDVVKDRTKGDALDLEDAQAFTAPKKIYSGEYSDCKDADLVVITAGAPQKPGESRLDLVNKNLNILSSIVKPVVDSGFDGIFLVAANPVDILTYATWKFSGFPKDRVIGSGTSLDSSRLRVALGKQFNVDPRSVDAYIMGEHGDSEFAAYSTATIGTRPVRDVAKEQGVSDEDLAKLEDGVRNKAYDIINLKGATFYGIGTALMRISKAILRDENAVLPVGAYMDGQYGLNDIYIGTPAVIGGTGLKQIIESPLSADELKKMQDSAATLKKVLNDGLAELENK

B1: monoclonal antibody 3D5 (antibody, V domains shown)
VH: EVQLQQSGPGILQSSQTLSLTCSFSGFSLSTSGMGVGWIRQPSGKGLEWLAHIWWDDVKRYNPALKSRLTISKDTSSSQVFLKIASVDTADTATYYCVRSLLAHYDGYYVIYAMDYWGQGTSVTVSS
VL: DIVLTQTPSSLAVSVGEKVTMS[about 80 residues left out]FGGGTKLEIKR
As to B1, the OD in test [1] turned out to be 0.062 OD; in test [2] it was 0.062 OD; in [3], 0.085 OD; in test [4], 0.113 OD; in test [5] it was 0.085 OD; in test [6], 0.053 OD. The OD in test [7] is 0.068 OD; in test [8] it was 0.093 OD; in test [9] it was 0.103 OD; in [10] it was 0.196 OD; in test [11], 0.21 OD; in test [12] it was 0.064 OD. Also, the OD in test [13] is 0.109 OD; in test [14], 0.317 OD; in [15], 0.239 OD; in test [16], 0.998 OD; in [17], 1.28 OD; in test [18], 0.16 OD. In test [19], this molecule had a detection level of LDH1 on rapid kit of 0.032 µg/mL.
